Data taken from PubChem BioAssay AID1346428 (National Center for Advancing Translational Sciences (NCATS), 2018).
Several values for one entry are separate records, joined by “and”; a condition that tells them apart may be missing. Identical values can stand only once. Out of some 48,000 compounds screened, about 1,200 (2.5%) were called active. Roughly 2% stayed inconclusive and do not appear here.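 Rule for the calls: active = activation of at least 60% and not above a set upper limit (about 1 call in 100 departs from these limits); inconclusive = activation of 40% to 60%, or above that upper limit; inactive = activation under 40%.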 The list shows a part of the results.

biological target: Probable G-protein coupled receptor 32 (Homo sapiens) (UniProt O75388); experiment: qHTS for Agonists of Human Resolvin D1 Receptor DRV1; conditions: CHO-K1 GPR32 beta-arrestin PathHunter luminescence, 90 min; at 76.9 µM; hits give high values; zero percent set by DMSO-only wells; note: 0% is about no effect
Sequence of UniProt O75388 (O75388 whole entry, looked up): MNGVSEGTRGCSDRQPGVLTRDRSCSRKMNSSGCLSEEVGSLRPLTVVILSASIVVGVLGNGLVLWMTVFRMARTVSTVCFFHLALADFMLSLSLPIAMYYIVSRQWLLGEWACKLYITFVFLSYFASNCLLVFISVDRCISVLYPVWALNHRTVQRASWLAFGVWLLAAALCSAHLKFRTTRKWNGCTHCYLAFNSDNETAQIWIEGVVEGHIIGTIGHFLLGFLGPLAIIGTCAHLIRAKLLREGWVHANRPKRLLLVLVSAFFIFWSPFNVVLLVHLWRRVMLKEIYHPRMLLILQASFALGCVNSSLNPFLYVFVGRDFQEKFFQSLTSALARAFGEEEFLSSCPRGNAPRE
Summary of the method: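 Readings come from a cell-based beta-arrestin complementation format: CHO-K1 GPR32 stable cells (2,500/well) treated 90 min with compounds, then beta-Gal substrate added for 1 h before chemiluminescence imaging.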

Q: `COc1ccc(NC(=O)Cn2c(=O)n(-c3ccc(C)c(C)c3)c(=O)c3c(C)c(C)sc32)cc1` was tested. Which activation did it give?
A: inactive: -3.01%

Q: `COc1cccc(N2CC(NC(=O)C3CC3)CC2=O)c1` (configuration not stated) was tested. Which activation did it give?
A: inactive: -3.78%

Q: `COc1ccc(N2CCN(c3cc(C)nc4nncn34)CC2)cc1` was tested. Which activation did it give?
A: inactive: 10.9%

Q: With `Cc1ccc(C)c(N2CCN(c3nc4c(S(=O)(=O)c5ccccc5)nnn4c4ccc(Cl)cc34)CC2)c1` as the compound, how does the activation read?
A: inactive: -1.01%

Q: `CCOc1ccc2c(c1)c(=O)c(C(=O)c1ccc(CC)cc1)cn2CC(=O)Nc1ccccc1C` was tested. Which activation did it give?
A: inactive: 30%

Q: For `Cc1ccc(CCNC(=O)c2ccc(NC(=O)N3CCSc4ccccc43)cc2)cc1`, which activation is on record?
A: inactive: -19.5%

Q: Which activation does the source give for `Cc1ccc(NC(=O)Cn2nnc(C(=O)NCCc3ccccc3)c2N)cc1Cl` here?
A: inactive: -7.27%

Q: For `COCC(=O)N1c2nc(-c3ccco3)nn2C2(CCCCC2)[C@@H]2CCCC[C@@H]21`, which activation is on record?
A: inactive: -13.9%

Q: With `CCc1ccc2c(c1)c(=O)c(S(=O)(=O)c1ccccc1)cn2CC(=O)Nc1ccc(OC)cc1` as the compound, how does the activation read?
A: inactive: -15.4%

Q: How did the activation turn out when `CCCN(C(=O)c1cc2c(=O)oc3ccccc3c2s1)c1ccccc1C` was run?
A: inactive: -0.559%

Q: For `CCC(C)NC(=O)Cn1c(=O)ccc2cc(S(=O)(=O)N3CCCC3)ccc21` (configuration not stated), which activation is on record?
A: inactive: 17.7%

Q: With `CCOC(=O)c1c(S(=O)(=O)N2CCC(C(=O)Nc3cccc(C)n3)CC2)c(C)n(C)c1C` as the compound, how does the activation read?
A: inactive: 3.83%

Q: How did the activation turn out when `COc1ccc(NC(=O)CN2C(=O)C3(SCC(=O)N3c3cccc(OC)c3)c3ccccc32)cc1` (configuration not stated) was run?
A: inactive: -11.2%

Q: How did the activation turn out when `CCOc1cc(CNC(=O)c2ccc3nc(CCc4ccccc4)oc3c2)ccc1OC` was run?
A: inactive: -7.02%

Q: Which activation does the source give for `O=C(CSc1nc2ccsc2c(=O)n1Cc1ccccc1Cl)NCc1ccc(Cl)cc1` here?
A: inactive: 16.3%

Q: Which activation does the source give for `O=C(CSc1nc2ccccc2n1Cc1c(F)cccc1Cl)N1CCN(c2ccc(F)cc2)CC1` here?
A: inactive: -6.01%

Q: With `Cc1ccc(CNC(=O)C(C)n2ccc3cc(S(=O)(=O)N4CCCC4)ccc32)cc1` (configuration not stated) as the compound, how does the activation read?
A: inactive: -4.29%

Q: `Cc1ccc(S(=O)(=O)NCCc2csc3nc(-c4ccccc4C)nn23)cc1` was tested. Which activation did it give?
A: active: 79.7%

Q: For `O=C(c1ccc2c(Cl)c3c(nc2c1)CCCC3)N1CCN(c2ccccc2F)CC1`, which activation is on record?
A: inactive: -10.1%

Q: How did the activation turn out when `O=C(Nc1nnc(SCc2cc(=O)n3cc(Cl)ccc3n2)s1)c1cccc(F)c1` was run?
A: inactive: -2.5%

Q: `CC(C)(C)[C@]1(O)CCN2C[C@H]3c4ccccc4CCc4cccc(c43)[C@@H]2C1` was tested. Which activation did it give?
A: inactive: -25.6% and inactive: -25%

Q: How did the activation turn out when `CCOc1ccc(N2CC(c3nc4ccccc4n3CCOc3ccc(CC)cc3)CC2=O)cc1` (configuration not stated) was run?
A: inactive: 5.31%
